This passage reports binding signal results from paper PMC9911399, “Two distinct binding modes provide the RNA-binding protein RbFox with extraordinary sequence specificity”.

Changes are numbered by the printed parent chain; changes in the protein carry UniProt numbers. Some of the results follow.

Sequences and labels used below:
T1: RBFOX1 RRM (Homo sapiens, UniProt Q9NWB1 109-208)
T1 sequence: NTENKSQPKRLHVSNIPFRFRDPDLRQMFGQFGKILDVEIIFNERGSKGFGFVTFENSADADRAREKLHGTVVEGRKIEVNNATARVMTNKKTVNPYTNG

B1: CGCAUCC (DNA:RNA)
RNA: GGGAGACCGGAAUUCAGAUUGUCCCGCAUCCUUAAAUCCCGUCGUAGCCACCA
DNA 1: CAATCTGAATTCCGGTCTCCC
DNA 2: TGGTGGCTACGACGGGATT
B2: AAUCGGC (DNA:RNA)
RNA: B1 RNA with C25A, G26A, C27U, A28C, U29G, C30G
DNA 1: CAATCTGAATTCCGGTCTCCC
DNA 2: TGGTGGCTACGACGGGATT
B3: GUGACUG (DNA:RNA)
RNA: B1 RNA with C25G, G26U, C27G, U29C, C30U, C31G
DNA 1: CAATCTGAATTCCGGTCTCCC
DNA 2: TGGTGGCTACGACGGGATT
B4: GCAUUCG (DNA:RNA)
RNA: B1 RNA with C25G, G26C, C27A, A28U, C31G
DNA 1: CAATCTGAATTCCGGTCTCCC
DNA 2: TGGTGGCTACGACGGGATT
B5: GUACUGA (DNA:RNA)
RNA: B1 RNA with C25G, G26U, C27A, A28C, C30G, C31A
DNA 1: CAATCTGAATTCCGGTCTCCC
DNA 2: TGGTGGCTACGACGGGATT
B6: CCGGGUG (DNA:RNA)
RNA: B1 RNA with G26C, C27G, A28G, U29G, C30U, C31G
DNA 1: CAATCTGAATTCCGGTCTCCC
DNA 2: TGGTGGCTACGACGGGATT
B7: GUAUGUU (DNA:RNA)
RNA: GGGAGACCGGAAUUCAGAUUGUCCGUAUGUUUUAAAUCCCGUCGUAGCCACCA
DNA 1: CAATCTGAATTCCGGTCTCCC
DNA 2: TGGTGGCTACGACGGGATT
B8: AAUAAAA (DNA:RNA)
RNA: B1 RNA with C25A, G26A, C27U, U29A, C30A, C31A
DNA 1: CAATCTGAATTCCGGTCTCCC
DNA 2: TGGTGGCTACGACGGGATT
B9: CAACUCA (DNA:RNA)
RNA: B1 RNA with G26A, C27A, A28C, C31A
DNA 1: CAATCTGAATTCCGGTCTCCC
DNA 2: TGGTGGCTACGACGGGATT
B10: UUUCAGC (DNA:RNA)
RNA: B1 RNA with C25U, G26U, C27U, A28C, U29A, C30G
DNA 1: CAATCTGAATTCCGGTCTCCC
DNA 2: TGGTGGCTACGACGGGATT
B11: AAAGAAG (DNA:RNA)
RNA: B7 RNA with G25A, U26A, U28G, G29A, U30A, U31G
DNA 1: CAATCTGAATTCCGGTCTCCC
DNA 2: TGGTGGCTACGACGGGATT
B12: GGUCGGU (DNA:RNA)
RNA: B7 RNA with U26G, A27U, U28C, U30G
DNA 1: CAATCTGAATTCCGGTCTCCC
DNA 2: TGGTGGCTACGACGGGATT
B13: UCUUCAG (DNA:RNA)
RNA: B7 RNA with G25U, U26C, A27U, G29C, U30A, U31G
DNA 1: CAATCTGAATTCCGGTCTCCC
DNA 2: TGGTGGCTACGACGGGATT
B14: GACUGAU (DNA:RNA)
RNA: B7 RNA with U26A, A27C, U30A
DNA 1: CAATCTGAATTCCGGTCTCCC
DNA 2: TGGTGGCTACGACGGGATT
B15: CAGUGAA (DNA:RNA)
RNA: B7 RNA with G25C, U26A, A27G, U30A, U31A
DNA 1: CAATCTGAATTCCGGTCTCCC
DNA 2: TGGTGGCTACGACGGGATT
B16: UGGCCGA (DNA:RNA)
RNA: B1 RNA with C25U, C27G, A28C, U29C, C30G, C31A
DNA 1: CAATCTGAATTCCGGTCTCCC
DNA 2: TGGTGGCTACGACGGGATT
B17: GUCCAUG (DNA:RNA)
RNA: B7 RNA with A27C, U28C, G29A, U31G
DNA 1: CAATCTGAATTCCGGTCTCCC
DNA 2: TGGTGGCTACGACGGGATT
B18: GGUACGA (DNA:RNA)
RNA: B1 RNA with C25G, C27U, U29C, C30G, C31A
DNA 1: CAATCTGAATTCCGGTCTCCC
DNA 2: TGGTGGCTACGACGGGATT
B19: GACUUGG (DNA:RNA)
RNA: B1 RNA with C25G, G26A, A28U, C30G, C31G
DNA 1: CAATCTGAATTCCGGTCTCCC
DNA 2: TGGTGGCTACGACGGGATT
B20: ACACGUU (DNA:RNA)
RNA: B7 RNA with G25A, U26C, U28C
DNA 1: CAATCTGAATTCCGGTCTCCC
DNA 2: TGGTGGCTACGACGGGATT
B21: UAUAUGC (DNA:RNA)
RNA: B1 RNA with C25U, G26A, C27U, C30G
DNA 1: CAATCTGAATTCCGGTCTCCC
DNA 2: TGGTGGCTACGACGGGATT
B22: CCUAGGC (DNA:RNA)
RNA: B1 RNA with G26C, C27U, U29G, C30G
DNA 1: CAATCTGAATTCCGGTCTCCC
DNA 2: TGGTGGCTACGACGGGATT
B23: CCGCGUU (DNA:RNA)
RNA: B7 RNA with G25C, U26C, A27G, U28C
DNA 1: CAATCTGAATTCCGGTCTCCC
DNA 2: TGGTGGCTACGACGGGATT
B24: CAAACUU (DNA:RNA)
RNA: B7 RNA with G25C, U26A, U28A, G29C
DNA 1: CAATCTGAATTCCGGTCTCCC
DNA 2: TGGTGGCTACGACGGGATT
B25: AGUUCAG (DNA:RNA)
RNA: B1 RNA with C25A, C27U, A28U, U29C, C30A, C31G
DNA 1: CAATCTGAATTCCGGTCTCCC
DNA 2: TGGTGGCTACGACGGGATT
B26: UAGCGCU (DNA:RNA)
RNA: B7 RNA with G25U, U26A, A27G, U28C, U30C
DNA 1: CAATCTGAATTCCGGTCTCCC
DNA 2: TGGTGGCTACGACGGGATT
B27: ACUUUAG (DNA:RNA)
RNA: B1 RNA with C25A, G26C, C27U, A28U, C30A, C31G
DNA 1: CAATCTGAATTCCGGTCTCCC
DNA 2: TGGTGGCTACGACGGGATT
B28: AGAUGCU (DNA:RNA)
RNA: B7 RNA with G25A, U26G, U30C
DNA 1: CAATCTGAATTCCGGTCTCCC
DNA 2: TGGTGGCTACGACGGGATT
B29: ACCACGA (DNA:RNA)
RNA: B1 RNA with C25A, G26C, U29C, C30G, C31A
DNA 1: CAATCTGAATTCCGGTCTCCC
DNA 2: TGGTGGCTACGACGGGATT
B30: ACACUUG (DNA:RNA)
RNA: B7 RNA with G25A, U26C, U28C, G29U, U31G
DNA 1: CAATCTGAATTCCGGTCTCCC
DNA 2: TGGTGGCTACGACGGGATT
B31: CAGUCGU (DNA:RNA)
RNA: B7 RNA with G25C, U26A, A27G, G29C, U30G
DNA 1: CAATCTGAATTCCGGTCTCCC
DNA 2: TGGTGGCTACGACGGGATT

The test concerns the target T1, RBFOX1 RRM. The test is described as follows: EMSA; HiTS-Eq, 1 nM pool, 10 min; buffer printed only for the single-RNA assays: 10 mM Tris pH 7.5, 150 mM NaCl, 3.4 mM EDTA, 0.001% NP-40, 30 C. To be noted: tags: His6 N-terminal (pET28a); label: 5' 32P. In outline:
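Relative association constants, normalised to the cognate motif, were derived by comparing read counts of each RNA species with those of the control reaction. The RNA sequenced was the free fraction, separated by 8% native PAGE after a 10 min equilibration in 50 µL of 1 nM 5′-radiolabelled RNA (7 randomized nucleotides) with increasing concentrations of purified wild-type or mutant RbFox RRM.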
A general note: Mobility shift assays separate free from complexed probe on a gel.
Consider B1, for which the binding signal was 0.0179 KA relative to UGCAUGU.

On to B2, for which the binding signal was 0.00741 KA relative to UGCAUGU.

Take B3: the binding signal is 0.0231 KA relative to UGCAUGU.

Turning to B4, the binding signal is 0.0118 KA relative to UGCAUGU.

Consider B5, for which the binding signal was 0.022 KA relative to UGCAUGU.

As to B6, the binding signal is 0.0271 KA relative to UGCAUGU.

Take B7: the binding signal was 0.0125 KA relative to UGCAUGU.

On to B8, for which the binding signal is 0.00195 KA relative to UGCAUGU.

As to B9, the binding signal is 0.0014 KA relative to UGCAUGU.

Take B10: the binding signal was 0.0149 KA relative to UGCAUGU.

As for B11, the binding signal was 0.00539 KA relative to UGCAUGU.

Regarding B12, the binding signal was 0.00845 KA relative to UGCAUGU.

For B13, the binding signal is 0.0121 KA relative to UGCAUGU.

On to B14, for which the binding signal is 0.0247 KA relative to UGCAUGU.

As for B15, the binding signal was 0.00713 KA relative to UGCAUGU.

For the molecule B16, the binding signal was 0.0244 KA relative to UGCAUGU.

On to B17, for which the binding signal was 0.00933 KA relative to UGCAUGU.

For the molecule B18, the binding signal was 0.00547 KA relative to UGCAUGU.

For the molecule B19, the binding signal was 0.0191 KA relative to UGCAUGU.

Take B20: the binding signal is 0.00226 KA relative to UGCAUGU.

With B21, the binding signal was 0.0169 KA relative to UGCAUGU.

With B22, the binding signal is 0.0108 KA relative to UGCAUGU.

For B23, the binding signal was 0.008 KA relative to UGCAUGU.

Regarding B24, the binding signal was 0.00124 KA relative to UGCAUGU.

With B25, the binding signal is 0.01 KA relative to UGCAUGU.

As for B26, the binding signal was 0.0105 KA relative to UGCAUGU.

Regarding B27, the binding signal was 0.00587 KA relative to UGCAUGU.

On to B28, for which the binding signal was 0.0117 KA relative to UGCAUGU.

With B29, the binding signal is 0.000467 KA relative to UGCAUGU.

Turning to B30, the binding signal is 0.00587 KA relative to UGCAUGU.

Regarding B31, the binding signal is 0.0115 KA relative to UGCAUGU.
